From PubChem BioAssay AID686979 (National Center for Advancing Translational Sciences (NCATS), 2013)
About 50,000 (12%) of roughly 420,000 compounds were called active. Inconclusive means that the source gave no clear call. Such entries were picked first, then a sample of the others. Calls follow the shape of the dose curve; as a rule, active = well fitted inhibition curve with a large enough effect; inconclusive = small, poorly fitted or top-dose-only effect; inactive = flat fitted curve, though single readings scatter. No potency is given beside an inconclusive call; the fits are too rough.

Experiment: qHTS for Inhibitors of human tyrosyl-DNA phosphodiesterase 1 (TDP1): qHTS in cells in presence of CPT; also: nearly all actives have a fitted effect of over 55% in size
Conditions: chicken DT40 Tdp1-/-;hTDP1 cells + 20 nM CPT, ATP luminescence, 48 h; series mostly up to 46.2 µM
Outline: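 Chicken DT40 Tdp1-/- cells complemented with human TDP1, 400 cells/well, exposed to compounds plus 20 nM camptothecin for at least 48 h at 37 C; viability read as ATP content by CellTiter-Glo luminescence.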
Potency is read from the fitted curve at half-maximal effect; tags tell the direction and shape of the fitted curve.

Q: With `O=C(N/N=C/c1ccccc1[N+](=O)[O-])c1ccc2nc[nH]c2c1` as the compound, how does the Potency read?
A: Its Potency is “inactive”.

Q: With `COC(=O)c1cccc(CSc2nc(-c3ccccc3)c(C#N)c(=O)[nH]2)c1` as the compound, how does the Potency read?
A: Its Potency is “inactive”.

Q: With `Cc1c(Cl)cccc1-n1ncc(C(=O)NCc2cccs2)c1C1CCN(C(=O)OC(C)(C)C)CC1` as the compound, how does the Potency read?
A: The Potency was inconclusive [inhibitor, single point].

Q: Which Potency does the source give for `O=C(C1CC(=O)N(c2ccc3c(c2)OCCO3)C1)N1CCN(S(=O)(=O)c2ccccc2F)CC1` (stereo not drawn) here?
A: The Potency was inconclusive [inhibitor, single point].

Q: Which Potency does the source give for `Cc1cc(C(=O)N/N=C/c2cccs2)no1` here?
A: The Potency was inconclusive [inhibitor, single point].

Q: With `Cc1cc(Cl)cc2c(N=Nc3ccccc3C(=O)O)c(O)[nH]c12` as the compound, how does the Potency read?
A: The Potency was inconclusive [inhibitor, single point].

Q: Which Potency does the source give for `COCCN(Cc1cc2ccc(C)cc2n2nnnc12)Cc1nnnn1C(C)(C)C` here?
A: The Potency was “inactive”.

Q: Which Potency does the source give for `CCOC(=O)[C@]12CCCC=C1N(Cc1ccccc1)C(=O)[C@H](CC(=O)NCCCCc1ccccc1)C2` here?
A: The Potency was inconclusive [inhibitor, single point].

Q: For `COC(=O)c1c(NC(=O)c2cc(OC)c(OC)c(OC)c2Br)sc2c1CCC(C)C2` (stereo not drawn), which Potency is on record?
A: The Potency was inconclusive [inhibitor, single point].

Q: With `Cc1cccc(NC(=O)c2cc(S(=O)(=O)N3CCN(c4ccccc4F)CC3)ccc2F)c1C` as the compound, how does the Potency read?
A: Its Potency is inconclusive [inhibitor, single point].

Q: With `COc1ccc(CNC(=O)CCn2nc(C)c3c(C)n(-c4ccccc4)nc3c2=O)c(OC)c1` as the compound, how does the Potency read?
A: The Potency was “inactive”.

Q: For `COc1ccc(-c2coc3c(OC)c(OC)cc(O)c3c2=O)cc1`, which Potency is on record?
A: Its Potency is inconclusive [inhibitor, single point].

Q: Which Potency does the source give for `CCOC(=O)N1CCN(C(=O)CN(c2ccc(Cl)c(C(F)(F)F)c2)S(C)(=O)=O)CC1` here?
A: The Potency was “inactive”.

Q: For `COc1cc(C2c3c(-c4ccc(C)cc4)n[nH]c3C(=O)N2c2ccc(F)cc2)ccc1O` (stereo not drawn), which Potency is on record?
A: The Potency was inconclusive [inhibitor, single point].

Q: With `O=C(NNC(=O)c1ccccc1F)c1cccc(-n2cccc2)c1` as the compound, how does the Potency read?
A: Its Potency is “inactive”.

Q: With `C=C1[C@@H](O)CN(Cc2ccc(OC)cc2)S1(=O)=O` as the compound, how does the Potency read?
A: The Potency was inconclusive [inhibitor, single point].

Q: With `COc1cc(CCN2C(=O)c3cccc4cccc(c34)C2=O)c(S(=O)(=O)NCCCO)cc1OC` as the compound, how does the Potency read?
A: The Potency was inconclusive [inhibitor, partial curve, poor fit].

Q: For `Fc1ccccc1Nc1nc(Cl)nc(Cl)n1`, which Potency is on record?
A: Its Potency is inconclusive [inhibitor, single point].

Q: With `COc1ccc(-n2c(CN3CCN(c4ccccc4OC)CC3)nc3ccc([N+](=O)[O-])cc3c2=O)c(OC)c1` as the compound, how does the Potency read?
A: Its Potency is inconclusive [inhibitor, single point].

Q: For `O=C(COc1ccccc1C(=O)OCC(=O)N1CCOCC1)Nc1ccc(Br)cc1`, which Potency is on record?
A: The Potency was active: 15.8 µM.

Q: For `COc1ccccc1CNc1nc(-c2ccccc2CO)c2sccc2n1`, which Potency is on record?
A: Its Potency is inconclusive [inhibitor, single point].

Q: Which Potency does the source give for `CC(C)CNc1ncnc2c1nnn2C` here?
A: Its Potency is “inactive”.

Q: Which Potency does the source give for `CN(C1CCCCC1)S(=O)(=O)c1ccc(S(=O)(=O)N2CCCC2)cc1` here?
A: The Potency was inconclusive [inhibitor, partial curve].

Q: With `COC(=O)CSc1[nH]c2cc(C)ccc2c1[N+](=O)[O-]` as the compound, how does the Potency read?
A: The Potency was inconclusive [inhibitor, partial curve, poor fit].

Q: With `COc1ccc(/C=N\NC(=O)c2ccccc2Br)cc1COc1ccc(F)cc1` as the compound, how does the Potency read?
A: The Potency was inconclusive [inhibitor, single point].

Q: For `Cc1cnc(C)c(-c2cc(F)cc3c2OC(CNC(=O)Cc2c(C)noc2C)C3)n1` (stereo not drawn), which Potency is on record?
A: Its Potency is inconclusive [inhibitor, single point].

Q: Which Potency does the source give for `CCOc1ccc(OCCC(=O)OCC(=O)c2c(N)n(CC(C)C)c(=O)n(C)c2=O)cc1` here?
A: Its Potency is inconclusive [inhibitor, single point].

Q: With `Cc1nc2ccc(C(=O)NCCc3c[nH]c4ccccc34)cn2c1N(C)C(=O)CCc1ccccc1` as the compound, how does the Potency read?
A: Its Potency is active: 23.1 µM.

Q: Which Potency does the source give for `C=CCOC(=O)C1=C[C@@H](c2ccc(C(F)(F)F)cc2)C[C@@H](OCCCCO)O1` here?
A: Its Potency is inconclusive [inhibitor, partial curve, poor fit].

Q: Which Potency does the source give for `CCC1CCc2sc(C(=O)NCC(c3ccc(OC)cc3)N3CCCC3)cc2C1` (stereo not drawn) here?
A: Its Potency is inconclusive [inhibitor, single point].

Q: For `CC(=O)Nc1cccc(-c2csc(C(O)c3ccccc3)n2)c1` (stereo not drawn), which Potency is on record?
A: Its Potency is inconclusive [inhibitor, single point].

Q: For `COc1ccc(OC)c(C(O)c2coc3ccc(O)c(CN4CCOCC4)c23)c1` (stereo not drawn), which Potency is on record?
A: The Potency was inconclusive [inhibitor, partial curve].

Q: With `CCCCN1C(=O)C(CC(=O)NCCCCc2ccccc2)CC(C(=O)N(C)C)=C1C` (stereo not drawn) as the compound, how does the Potency read?
A: The Potency was “inactive”.

Q: Which Potency does the source give for `O=C(N/N=C/c1sc2ccccc2c1O)c1cccc2ccccc12` here?
A: Its Potency is active: 2.59 µM.

Q: For `Cc1ccc2c(c1)-c1[nH]c(=S)ncc1CS2`, which Potency is on record?
A: The Potency was inconclusive [inhibitor, single point].

Q: With `COc1cc(NC(=O)N2CCC3(CC2)Nc2cc(F)ccc2-n2cccc23)cc(OC)c1OC` as the compound, how does the Potency read?
A: The Potency was active: 16.4 µM.

Q: For `Cc1ccc(OCCCCNC(C)c2ccccc2)c(C)c1` (stereo not drawn), which Potency is on record?
A: The Potency was inconclusive [inhibitor, single point].

Q: Which Potency does the source give for `CCOc1ccccc1C(=S)NC1CCCCC1` here?
A: Its Potency is “inactive”.

Q: Which Potency does the source give for `O=S(=O)(Nc1ncccc1O)c1ccc(Cl)cc1` here?
A: The Potency was inconclusive [inhibitor, single point].

Q: Which Potency does the source give for `COc1ccccc1N=c1oc2c(OC)cccc2cc1C(=O)NCc1ccco1` here?
A: The Potency was inconclusive [inhibitor, single point].

Q: With `CC(C)(C)c1ccc(CN(Cc2ccco2)c2cnc(S(C)(=O)=O)nc2C(=O)Nc2ccc(F)cc2)cc1` as the compound, how does the Potency read?
A: Its Potency is inconclusive [inhibitor, single point].

Q: With `O=C(CC(=O)Nc1nc(C23CC4CC(CC(C4)C2)C3)cs1)NCCO` as the compound, how does the Potency read?
A: The Potency was inconclusive [inhibitor, single point].

Q: Which Potency does the source give for `Cc1cccc2sc(N(CCCN(C)C)C(=O)CN3C(=O)c4ccccc4C3=O)nc12` here?
A: Its Potency is inconclusive [inhibitor, single point].

Q: Which Potency does the source give for `Cc1cc(NC(=O)C2CCN(C(=O)c3ccco3)CC2)ccc1Br` here?
A: Its Potency is inconclusive [inhibitor, partial curve].

Q: For `Cc1ccc(S(=O)(=O)NN=Cc2ccccc2Cl)cc1`, which Potency is on record?
A: The Potency was active: 23.1 µM.

Q: With `CO[C@@H]1CN(C)C(=O)c2cc(NC(=O)Nc3cc(F)ccc3F)ccc2OC[C@H](C)N(C(=O)c2ccccn2)C[C@@H]1C` as the compound, how does the Potency read?
A: Its Potency is inconclusive [inhibitor, partial curve].

Q: Which Potency does the source give for `Cc1ccc(Nc2nc(=O)c3cccnc3s2)c(Br)c1` here?
A: Its Potency is “inactive”.

Q: With `CC(=O)Nc1ccc(NC(=O)C2(C)Cc3c(-c4ccccc4)ccnc3O2)cc1` (stereo not drawn) as the compound, how does the Potency read?
A: The Potency was inconclusive [inhibitor, partial curve, poor fit].

Q: For `NS(=O)(=O)c1ccc(NC(=O)c2cc(Cl)sc2Cl)cc1`, which Potency is on record?
A: Its Potency is “inactive”.

Q: With `O=[N+]([O-])c1ccc(COc2ccc(-c3[nH]ncc3-c3ccc(Cl)cc3)c(O)c2)cc1` as the compound, how does the Potency read?
A: Its Potency is inconclusive [inhibitor, single point].

Q: For `CCN(CC)CCN(Cc1cc2cc3c(cc2[nH]c1=O)OCCO3)C(=S)NCCCN(C)C`, which Potency is on record?
A: The Potency was “inactive”.

Q: With `CCc1cccc(CC)c1-n1nnc2c(sc3nc(C)cc(C)c32)c1=O` as the compound, how does the Potency read?
A: The Potency was inconclusive [inhibitor, single point].

Q: Which Potency does the source give for `CN(C)S(=O)(=O)c1ccc(N2CCCC2)c(C(=O)NNC(=O)c2ccc(F)cc2)c1` here?
A: The Potency was “inactive”.

Q: With `Cc1cc(NS(=O)(=O)c2ccc(NC(=O)C(F)(F)F)cc2)nc(C)n1` as the compound, how does the Potency read?
A: Its Potency is “inactive”.

Q: Which Potency does the source give for `Cc1cccc(C)c1NC(=O)CSc1nc2[nH]c(=O)cc(O)c2s1` here?
A: Its Potency is “inactive”.

Q: With `Clc1ccc(OCc2nc3ccccc3n2Cc2ccccc2)c(Cl)c1` as the compound, how does the Potency read?
A: Its Potency is inconclusive [inhibitor, single point].

Q: Which Potency does the source give for `COc1ccc(CNC(=O)C2CCCN2C)cc1OC` (stereo not drawn) here?
A: Its Potency is “inactive”.

Q: With `COc1ccc(C(C(=O)NC2CCCC2)N(C(=O)c2ccoc2C)c2ccccc2)cc1` (stereo not drawn) as the compound, how does the Potency read?
A: The Potency was inconclusive [inhibitor, single point].

Q: Which Potency does the source give for `CCc1ccc(-c2nn(CC(=O)Nc3ccccc3C)c3c2cnc2ccc(C)cc23)cc1` here?
A: The Potency was “inactive”.

Q: With `CC(NC(=O)COc1cccnc1[N+](=O)[O-])c1ccc(Cl)cc1` (stereo not drawn) as the compound, how does the Potency read?
A: Its Potency is “inactive”.

Q: For `CCCC#Cc1ccc2c(c1)COc1c3ccccc3nn1-2`, which Potency is on record?
A: The Potency was inconclusive [inhibitor, partial curve].

Q: For `O=C(CSc1nc(-c2ccc(F)cc2)[nH]c1-c1ccccc1)Nc1ccccc1`, which Potency is on record?
A: The Potency was active: 18.4 µM.

Q: For `O=[N+]([O-])c1cccnc1S(=O)(=O)c1ccccc1`, which Potency is on record?
A: Its Potency is active: 0.92 µM.

Q: With `CCOC(=O)[C@]12CCC=C1N(Cc1ccccc1)C(=O)[C@H](CC(=O)NCc1cccc(C(F)(F)F)c1)C2` as the compound, how does the Potency read?
A: Its Potency is inconclusive [inhibitor, single point].

Q: For `CC(=O)Nc1cccc(/C(C)=N/NC(=O)c2ccc(Cl)cc2Cl)c1`, which Potency is on record?
A: The Potency was inconclusive [inhibitor, single point].

Q: Which Potency does the source give for `CCc1ccc(-c2cc(C)no2)cc1S(=O)(=O)NCc1ccccc1OC` here?
A: Its Potency is inconclusive [inhibitor, single point].

Q: Which Potency does the source give for `COc1cc(NC(=O)c2nc3ccccc3nc2N2CCCCC2)cc(OC)c1OC` here?
A: The Potency was inconclusive [inhibitor, single point].

Q: For `O=C(/C=C/c1ccco1)N(Cc1ccc(Cl)cc1)C1CCS(=O)(=O)C1` (stereo not drawn), which Potency is on record?
A: The Potency was inconclusive [inhibitor, partial curve, poor fit].
